Data reported in a collection of fitness landscapes (doi:10.1038/s41467-024-54723-y).
Whole data set: some 18,000 sequences, median “TetR repression strength (sort-seq, GFP reporter)” near 0.23, cut for the highest 2% near 0.68. The list shows a part of the results.

Each sequence was assayed against TetR (class B, Tn10) (UniProt P04483) (assay: TetR repression strength (sort-seq, GFP reporter) (relative to tetO2 = 1); higher = stronger repression). Settings: E. coli.
Method in brief: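 Escherichia coli SIG10-MAX cells carried a low-copy plasmid library in which eight operator positions were randomized between a constitutive promoter and sfGFP, and TetR was expressed constitutively. After 5 h of growth at 37 °C in LB with 50 µg/mL chloramphenicol, 10^6 cells were FACS-sorted into 13 fluorescence bins, and each bin was Illumina-sequenced. Repression strength was the top bin index plus one minus the read-weighted mean bin, divided by the value for the unaltered operator. Across three independent transformations, only library members with ≥30 reads in every replicate and a CV ≤0.5 were averaged.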

UniProt P04483, sequence (P04483 whole entry): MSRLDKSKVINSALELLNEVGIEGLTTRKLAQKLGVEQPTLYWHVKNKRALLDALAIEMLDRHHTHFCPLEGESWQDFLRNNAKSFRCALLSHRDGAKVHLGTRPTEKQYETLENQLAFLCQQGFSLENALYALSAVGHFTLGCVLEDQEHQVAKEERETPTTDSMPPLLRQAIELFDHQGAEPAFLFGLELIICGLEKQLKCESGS

Sequence	TetR repression strength
TCCCTATTAGTCATCGAGA	0.458
TCCCATAGAGTGGGAGAGA	0.153
TCCCGTTAAGTCTCGGAGA	0.225
TCCCCCAGAGTGGTCGAGA	0.208
TCCCTGAAAGTGCTCGAGA	0.276
TCCCCCGCAGTGCATGAGA	0.385
TCCCGCTCAGTGTTGGAGA	0.0582
TCCCGGGGAGTTGTCGAGA	0.161
TCCCTGCAAGTGAATGAGA	0.188
TCCCGTGCAGTGGCTGAGA	0.225
TCCCGGTTAGTATATGAGA	0.0644
TCCCGAACAGTCTGTGAGA	0.125
TCCCAGGTAGTCCCGGAGA	0.168
TCCCGGTCAGTCACTGAGA	0.312
TCCCAAACAGTTACTGAGA	0.276
TCCCGAGGAGTGGACGAGA	0.186
TCCCGATCAGTCCTCGAGA	0.233
TCCCCCGGAGTGGACGAGA	0.193
TCCCATGGAGTTAGGGAGA	0.223
TCCCGTGTAGTCATAGAGA	0.165
TCCCGAGCAGTTAGAGAGA	0.202
TCCCGAGCAGTGCATGAGA	0.223
TCCCATATAGTTATGGAGA	0.0304
TCCCGGGCAGTCGTGGAGA	0.285
TCCCCGGAAGTGCGTGAGA	0.147
TCCCTTTCAGTTCCTGAGA	0.297

Sequence	TetR repression strength
TCCCCGGGAGTAGGTGAGA	0.11
TCCCGCGTAGTCAGTGAGA	0.0931
TCCCCTGTAGTGTCTGAGA	0.148
TCCCAAGTAGTTCTTGAGA	0.0829
TCCCGGTAAGTGAGAGAGA	0.502
TCCCGGCGAGTGCCTGAGA	0.0396
TCCCTTGCAGTCAAAGAGA	0.0958
TCCCGAGGAGTTTATGAGA	0.374
TCCCGGGCAGTGGGAGAGA	0.22
TCCCGCGGAGTAGTGGAGA	0.15
TCCCGGGCAGTCGGGGAGA	0.284
TCCCCCCAAGTGGTTGAGA	0.155
TCCCGGATAGTACTTGAGA	0.406
TCCCTTAGAGTTTGTGAGA	0.256
TCCCTTGAAGTGTCTGAGA	0.616
TCCCCACTAGTACGTGAGA	0.363
TCCCGCTTAGTCGTGGAGA	0.209
TCCCTGTTAGTGCAGGAGA	0.104
TCCCTATAAGTCGTAGAGA	0.503
TCCCCCGCAGTAAGCGAGA	0.153
TCCCAGGGAGTGTAGGAGA	0.21
TCCCTAGGAGTTATTGAGA	0.218
TCCCATACAGTTGGAGAGA	0.37
TCCCATTAAGTCCGCGAGA	0.44
TCCCAAGCAGTGTTGGAGA	0.232
TCCCGTGGAGTGTACGAGA	0.19

Sequence	TetR repression strength
TCCCATTGAGTGCGGGAGA	0.192
TCCCCTAGAGTGGTAGAGA	0.634
TCCCGCAGAGTCGGTGAGA	0.133
TCCCTGGGAGTACTCGAGA	0.0787
TCCCCAGCAGTTTAGGAGA	0.207
TCCCCATCAGTCCTGGAGA	0.144
TCCCTGACAGTGCCAGAGA	0.145
TCCCAATGAGTCTAGGAGA	0.23
TCCCTGAAAGTATGGGAGA	0.256
TCCCGTCTAGTGCACGAGA	0.218
TCCCCGGGAGTGGTGGAGA	0.137
TCCCTGACAGTCGATGAGA	0.196
TCCCTCACAGTGGCGGAGA	0.218
TCCCACACAGTTCGGGAGA	0.406
TCCCGCCCAGTGTGAGAGA	0.493
TCCCAGTGAGTCGGGGAGA	0.295
TCCCGTTGAGTGTGGGAGA	0.187
TCCCGCGAAGTAGTCGAGA	0.196
TCCCTATGAGTAAATGAGA	0.225
TCCCAGTGAGTATCGGAGA	0.189
TCCCCAATAGTTTTTGAGA	0.382
TCCCCAACAGTGTTGGAGA	0.292
TCCCACTGAGTATTTGAGA	0.202
TCCCGGGGAGTACAAGAGA	0.3
TCCCATCAAGTTACAGAGA	0.258
TCCCAAGCAGTCCCCGAGA	0.321

Sequence	TetR repression strength
TCCCCGAGAGTGCCCGAGA	0.2
TCCCCCACAGTAGAGGAGA	0
TCCCTTCGAGTTTTTGAGA	0.327
TCCCGGTAAGTCAGAGAGA	0.458
TCCCAGTAAGTGAGGGAGA	0.25
TCCCAGCGAGTACAAGAGA	0.298
TCCCAGTGAGTACGGGAGA	0.211
TCCCCATCAGTGAGCGAGA	0.19
TCCCCAGGAGTACGAGAGA	0.325
TCCCGCTTAGTTACGGAGA	1.2
TCCCCTAGAGTGTTCGAGA	0.361
TCCCTGGGAGTGGGCGAGA	0.284
TCCCAATCAGTCCGCGAGA	0.295
TCCCATGTAGTGTCCGAGA	0.31
TCCCAAGGAGTTCGGGAGA	0.324
TCCCGTCAAGTCGGTGAGA	0.112
TCCCCCGGAGTGAACGAGA	0.145
TCCCCGTCAGTAGGAGAGA	0.0333
TCCCCAAAAGTAGGGGAGA	0.257
TCCCCCGGAGTGGAAGAGA	0.207
TCCCGTAAAGTTGTGGAGA	0.331
TCCCAATCAGTGCTGGAGA	0.531
TCCCGCTTAGTGATGGAGA	0.427
TCCCCGCTAGTAAGCGAGA	0.263
